In the supplement of paper PMC3334620:
The full ranking holds about 33,000 sequences; the median of “E-score (-0.5 to 0.5)” is about -0.016, and the highest 2% start at about 0.32. The list shows a part of the results.

These sequences were tested against T1, Stp1 (UniProt B3LFK1) (assay: PBM E-score (8-mer binding enrichment) (E-score (-0.5 to 0.5)); higher = stronger / more preferred TF binding; most listed sequences are background and not binding sites). Details: protein concentration: 200 nM; construct: GST-full length.
T1 sequence: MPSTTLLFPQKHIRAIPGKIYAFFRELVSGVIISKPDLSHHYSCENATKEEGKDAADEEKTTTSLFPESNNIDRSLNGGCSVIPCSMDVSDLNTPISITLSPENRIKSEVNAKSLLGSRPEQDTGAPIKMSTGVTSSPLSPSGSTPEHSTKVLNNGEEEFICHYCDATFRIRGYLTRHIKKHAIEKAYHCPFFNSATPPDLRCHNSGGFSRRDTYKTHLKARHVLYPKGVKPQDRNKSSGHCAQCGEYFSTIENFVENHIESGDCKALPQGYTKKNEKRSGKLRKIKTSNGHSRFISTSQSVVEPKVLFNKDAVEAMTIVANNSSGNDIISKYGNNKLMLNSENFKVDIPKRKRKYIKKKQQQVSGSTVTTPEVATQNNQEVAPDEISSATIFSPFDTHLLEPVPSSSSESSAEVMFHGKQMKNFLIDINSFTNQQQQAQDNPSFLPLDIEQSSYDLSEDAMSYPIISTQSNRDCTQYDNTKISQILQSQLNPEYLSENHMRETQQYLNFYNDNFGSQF
Summary of the method: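 The E-score, a modified Wilcoxon-Mann-Whitney statistic, was computed by the Universal PBM Analysis Suite for every ungapped eight-base word pooled with its reverse complement. Scans behind it were normalised with masliner after bound GST-tagged yeast transcription factors were detected with fluorescent anti-GST. The proteins, at about 100-200 nM, had been applied to universal all-10-mer Agilent arrays made double-stranded by primer extension.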

Compared with TCGGATCA, CTCCTGAC is lower in “PBM E-score” value: 0.0679 for the first, -0.134 for the second.

Going from CGCTCGAC to CAGGTATG, the “PBM E-score” value rises from -0.0914 to -0.0429.

Compared with AGTATTGG, ACCGTGCT is higher in “PBM E-score” value: -0.16 for the first, -0.133 for the second.

Compared with GGACCGCC, AAACGAAT is higher in “PBM E-score” value: -0.0374 for the first, 0.0449 for the second.

Compared with AGAACGAC, CTTAGCGC is higher in “PBM E-score” value: -0.145 for the first, 0.258 for the second.

Compared with CAGTAAGG, TCACTACA is higher in “PBM E-score” value: -0.112 for the first, 0.094 for the second.

Going from CCCCCTAA to AAAGTCAC, the “PBM E-score” value rises from -0.343 to -0.0894.

First: CCACATAG
Second: AAAGGATG
The “PBM E-score” value of the first is lower: -0.0697 for the first, 0.0347 for the second.

First: AAAAAGCA
Second: GAGTTCAC
The “PBM E-score” value of the first is higher: -0.00964 for the first, -0.151 for the second.

Compared with TACCAATA, AAAGACAC is higher in “PBM E-score” value: -0.0683 for the first, 0.167 for the second.

Compared with ATACTACC, AACTGGGG is lower in “PBM E-score” value: 0.0303 for the first, -0.263 for the second.

First: CAGCCAAG
Second: ATGTAACG
The “PBM E-score” value of the first is lower: -0.234 for the first, 0.0402 for the second.

Going from AGGCTAGC to AGTTCTAG, the “PBM E-score” value falls from -0.0958 to -0.112.

Going from CCCTTTCG to AACTTCAC, the “PBM E-score” value rises from -0.0373 to 0.192.

First: AGTCATAG
Second: TGAACACA
The “PBM E-score” value of the first is lower: -0.198 for the first, 0.0238 for the second.

First: GATGGCTA
Second: TAAGAGAA
The “PBM E-score” value of the first is lower: 0.038 for the first, 0.121 for the second.

Compared with GATGAACC, ATAGTCCG is higher in “PBM E-score” value: -0.129 for the first, -0.0422 for the second.

First: GATGGGCC
Second: CGAACAAC
The “PBM E-score” value of the first is lower: -0.145 for the first, 0.161 for the second.

First: ATAATACA
Second: CGTCAGCC
The “PBM E-score” value of the first is higher: 0.28 for the first, -0.00525 for the second.

Compared with ACCTAGGG, AGACCATG is lower in “PBM E-score” value: -0.184 for the first, -0.281 for the second.

Going from CTTTCGAA to ATAGGTAC, the “PBM E-score” value falls from 0.0094 to -0.109.

Compared with AGAACTTA, AATTCCCA is lower in “PBM E-score” value: 0.145 for the first, -0.18 for the second.

Going from GTTAGAGA to CTCTACTC, the “PBM E-score” value rises from -0.193 to -0.144.

First: AAACTAGA
Second: AAGAGTCG
The “PBM E-score” value of the first is higher: -0.104 for the first, -0.166 for the second.

Going from AGGTGACG to CCCGAGAA, the “PBM E-score” value rises from -0.182 to -0.0165.

First: ATACCCAG
Second: ATTGAACA
The “PBM E-score” value of the first is lower: -0.207 for the first, -0.041 for the second.

Compared with TGCGAGCA, CAATATAA is higher in “PBM E-score” value: 0.0256 for the first, 0.209 for the second.

First: CGTACGGC
Second: ATATAACG
The “PBM E-score” value of the first is higher: 0.482 for the first, 0.118 for the second.

First: GGGATCCA
Second: CACGTCAC
The “PBM E-score” value of the first is lower: -0.0993 for the first, -0.0268 for the second.

First: CGTGTAGA
Second: CGGCCAGA
The “PBM E-score” value of the first is higher: 0.15 for the first, -0.0091 for the second.

Going from ACTGTATG to CCTGATGC, the “PBM E-score” value rises from -0.085 to 0.176.

First: AACCCATT
Second: GGTGACTA
The “PBM E-score” value of the first is lower: -0.081 for the first, -0.0454 for the second.

Compared with ACGGCTAG, CCCCGCAG is lower in “PBM E-score” value: 0.235 for the first, -0.0786 for the second.

First: CCTCTATA
Second: ACGAAAAA
The “PBM E-score” value of the first is lower: -0.0586 for the first, 0.0737 for the second.

Going from CGGCTAAG to AAAGCTAG, the “PBM E-score” value falls from 0.226 to -0.247.

Compared with CTCGAGGC, GGGTCCCA is lower in “PBM E-score” value: -0.0238 for the first, -0.279 for the second.

Compared with CCGGCACG, CGCAGGCC is lower in “PBM E-score” value: 0.27 for the first, -0.139 for the second.

Going from AAGCAGTG to CGAAGCCC, the “PBM E-score” value falls from -0.0307 to -0.0352.

Compared with GGCCACAA, GAAACGGA is higher in “PBM E-score” value: 0.0978 for the first, 0.132 for the second.

Going from ATTGTCGC to ATATGAGG, the “PBM E-score” value falls from 0.112 to -0.0922.

Going from CGCAGCGA to CGCGCGTC, the “PBM E-score” value rises from -0.101 to 0.16.

Compared with AAGTCACC, CTAAGCTA is higher in “PBM E-score” value: -0.263 for the first, 0.103 for the second.

First: AACGCGTG
Second: CTTAAAAA
The “PBM E-score” value of the first is higher: 0.144 for the first, 0.0532 for the second.

First: AGGTTCAG
Second: CTTCCTCC
The “PBM E-score” value of the first is higher: -0.0505 for the first, -0.235 for the second.

First: GGAGCTGA
Second: AGTCGGGC
The “PBM E-score” value of the first is lower: -0.212 for the first, -0.209 for the second.

Going from ACTGCTCC to ACCAACCC, the “PBM E-score” value rises from -0.21 to -0.06.

Compared with CATGGACG, CGCGCCGC is higher in “PBM E-score” value: -0.0442 for the first, 0.483 for the second.
